Assay results as given in the supplement of paper PMC8728848.
The list shows a part of the results.

How the values were obtained:
Assay in all cases: glycan array binding signal (z-score within array); higher = stronger binding
Conditions in all cases: glycan notation: IUPAC condensed, linker removed
[1] = molecular target: Fuc(a1-2)[Gal(a1-3)]Gal(b1-4)GlcNAc(b1-3)GalNAc
Summary of the method: (§1)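 The binding signal is a Z-score computed within each array. Data were drawn from 3228 arrays in the Consortium for Functional Glycomics database, restricted to those with a known protein sequence. Scores were averaged over arrays of the same protein sequence at different concentrations or buffers, and over linkers, and negative values can be taken as non-binding.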

[2] = molecular target: Fuc(a1-2)[Gal(a1-3)]Gal(b1-4)[Fuc(a1-3)]Glc
Summary of the method: as §1

[3] = molecular target: Fuc(a1-2)[Gal(a1-3)]Gal(b1-4)[Fuc(a1-3)]GlcNAc
Summary of the method: as §1

[4] = molecular target: Fuc(a1-2)[Gal(a1-3)]Gal(b1-4)[Fuc(a1-3)]GlcNAc(b1-3)GalNAc
Summary of the method: as §1

[5] = molecular target: Fuc(a1-2)[Gal(a1-4)]Gal(b1-4)GlcNAc
Summary of the method: as §1

[6] = molecular target: Fuc(a1-2)[GalNAc(a1-3)]Gal
Summary of the method: as §1

[7] = molecular target: Fuc(a1-2)[GalNAc(a1-3)]Gal(b1-3)GalNAc(a1-3)[Fuc(a1-2)]Gal(b1-4)GlcNAc
Summary of the method: as §1

[8] = molecular target: Fuc(a1-2)[GalNAc(a1-3)]Gal(b1-3)GlcNAc
Summary of the method: as §1

[9] = molecular target: Fuc(a1-2)[GalNAc(a1-3)]Gal(b1-3)GlcNAc(b1-2)Man(a1-3)[Fuc(a1-2)[GalNAc(a1-3)]Gal(b1-3)GlcNAc(b1-2)Man(a1-6)]Man(b1-4)GlcNAc(b1-4)GlcNAc
Summary of the method: as §1

[10] = molecular target: Fuc(a1-2)[GalNAc(a1-3)]Gal(b1-3)GlcNAc(b1-3)GalNAc
Summary of the method: as §1

[11] = molecular target: Fuc(a1-2)[GalNAc(a1-3)]Gal(b1-4)Glc
Summary of the method: as §1

[12] = molecular target: Fuc(a1-2)[GalNAc(a1-3)]Gal(b1-4)GlcNAc
Summary of the method: as §1

[13] = molecular target: Fuc(a1-2)[GalNAc(a1-3)]Gal(b1-4)GlcNAc(b1-2)Man(a1-3)[Fuc(a1-2)[GalNAc(a1-3)]Gal(b1-4)GlcNAc(b1-2)Man(a1-6)]Man(b1-4)GlcNAc(b1-4)GlcNAc
Summary of the method: as §1

[14] = molecular target: Fuc(a1-2)[GalNAc(a1-3)]Gal(b1-4)GlcNAc(b1-3)Gal(b1-4)GlcNAc
Summary of the method: as §1

[15] = molecular target: Fuc(a1-2)[GalNAc(a1-3)]Gal(b1-4)GlcNAc(b1-3)Gal(b1-4)GlcNAc(b1-3)Gal(b1-4)GlcNAc
Summary of the method: as §1

[16] = molecular target: Fuc(a1-2)[GalNAc(a1-3)]Gal(b1-4)GlcNAc(b1-3)GalNAc
Summary of the method: as §1

[17] = molecular target: Fuc(a1-2)[GalNAc(a1-3)]Gal(b1-4)[Fuc(a1-3)]GlcNAc
Summary of the method: as §1

[18] = molecular target: Fuc(a1-2)[GalNAc(a1-3)]Gal(b1-4)[Fuc(a1-3)]GlcNAc(b1-3)GalNAc
Summary of the method: as §1

[19] = molecular target: Fuc(a1-2)[GalNAc(a1-4)]Gal(b1-4)GlcNAc
Summary of the method: as §1

[20] = molecular target: Fuc(a1-2)[GalNAc(b1-3)]Gal
Summary of the method: as §1

[21] = molecular target: Fuc(a1-3)GlcNAc
Summary of the method: as §1

[22] = molecular target: Fuc(a1-3)[Gal(b1-4)]Glc6S
Summary of the method: as §1

[23] = molecular target: Fuc(a1-3)[Gal(b1-4)]GlcNAc
Summary of the method: as §1

[24] = molecular target: Fuc(a1-3)[Gal(b1-4)]GlcNAc(b1-2)Man(a1-3)[Fuc(a1-3)[Gal(b1-4)]GlcNAc(b1-2)Man(a1-6)]Man(b1-4)GlcNAc(b1-4)GlcNAc
Summary of the method: as §1

[25] = molecular target: Fuc(a1-3)[Gal(b1-4)]GlcNAc(b1-2)Man(a1-3)[Fuc(a1-3)[Gal(b1-4)]GlcNAc(b1-2)Man(a1-6)]Man(b1-4)GlcNAc(b1-4)[Fuc(a1-6)]GlcNAc
Summary of the method: as §1

[26] = molecular target: Fuc(a1-3)[Gal(b1-4)]GlcNAc(b1-3)Gal(b1-3)[Fuc(a1-4)]GlcNAc
Summary of the method: as §1

[27] = molecular target: Fuc(a1-3)[Gal(b1-4)]GlcNAc(b1-3)GalNAc
Summary of the method: as §1

[28] = molecular target: Fuc(a1-3)[Gal(b1-4)]GlcNAc(b1-4)Gal(b1-4)[Fuc(a1-3)]GlcNAc
Summary of the method: as §1

[29] = molecular target: Fuc(a1-3)[Gal(b1-4)]GlcNAc(b1-4)Gal(b1-4)[Fuc(a1-3)]GlcNAc(b1-4)Gal(b1-4)[Fuc(a1-3)]GlcNAc
Summary of the method: as §1

[30] = molecular target: Fuc(a1-3)[Gal(b1-4)]GlcNAc(b1-6)[Gal(b1-3)GlcNAc(b1-3)]Gal(b1-4)Glc
Summary of the method: as §1

[31] = molecular target: Fuc(a1-3)[Gal(b1-4)]GlcNAc6S
Summary of the method: as §1

[32] = molecular target: Fuc(a1-3)[Gal3S(b1-4)]GlcNAc
Summary of the method: as §1

[33] = molecular target: Fuc(a1-3)[Gal3S(b1-4)]GlcNAc6S
Summary of the method: as §1

[34] = molecular target: Fuc(a1-3)[GalNAc(b1-4)]GlcNAc
Summary of the method: as §1

[35] = molecular target: Fuc(a1-4)GlcNAc
Summary of the method: as §1

[36] = molecular target: Fuc(b1-3)GlcNAc
Summary of the method: as §1

[37] = molecular target: Gal(a1-2)Gal
Summary of the method: as §1

[38] = molecular target: Gal(a1-3)Gal
Summary of the method: as §1

[39] = molecular target: Gal(a1-3)Gal(b1-3)GlcNAc
Summary of the method: as §1

[40] = molecular target: Gal(a1-3)Gal(b1-3)GlcNAc(b1-2)Man(a1-3)[Gal(a1-3)Gal(b1-3)GlcNAc(b1-2)Man(a1-6)]Man(b1-4)GlcNAc(b1-4)GlcNAc
Summary of the method: as §1

[41] = molecular target: Gal(a1-3)Gal(b1-3)GlcNAc(b1-3)GalNAc
Summary of the method: as §1

[42] = molecular target: Gal(a1-3)Gal(b1-3)[Fuc(a1-4)]GlcNAc(b1-2)Man(a1-3)[Gal(a1-3)Gal(b1-3)[Fuc(a1-4)]GlcNAc(b1-2)Man(a1-6)]Man(b1-4)GlcNAc(b1-4)GlcNAc
Summary of the method: as §1

[43] = molecular target: Gal(a1-3)Gal(b1-4)Glc
Summary of the method: as §1

[44] = molecular target: Gal(a1-3)Gal(b1-4)GlcNAc
Summary of the method: as §1

[45] = molecular target: Gal(a1-3)Gal(b1-4)GlcNAc(b1-3)GalNAc
Summary of the method: as §1

B1: SEX4 (Arabidopsis thaliana), Q944A8 (protein)
chain: TQAMGAVLTYRHELGMNYNFIRPDLIVGSCLQTPEDVDKLRKIGVKTIFCLQQDPDLEYFGVDISSIQAYAKKYSDIQHIRCEIRDFDAFDLRMRLPAVVGTLYKAVKRNGGVTYVHCTAGMGRAPAVALTYMFWVQGYKLMEAHKLLMSKRSCFPKLDAIRNATIDILTGLKRKTVTLTLKDKGFSRVEISGLDIGWGQRIPLTLGKGTGFWILKRELPEGQFEYKYIIDGEWTHNEAEPFIGPNKDGHTNNYAKVVDDPTSVDGTTRERLSSEDPELLEEERSKLIQFLETCSEAEV
glycan array binding signal (z-score) [1]: -0.37 | glycan array binding signal (z-score) [2]: -0.413 | glycan array binding signal (z-score) [3]: 0.041 | glycan array binding signal (z-score) [4]: 0.171 | glycan array binding signal (z-score) [5]: -0.434 | glycan array binding signal (z-score) [6]: -0.519 | glycan array binding signal (z-score) [7]: 0.238 | glycan array binding signal (z-score) [8]: -0.556 | glycan array binding signal (z-score) [9]: 1.05 | glycan array binding signal (z-score) [10]: 1.92 | glycan array binding signal (z-score) [11]: -0.33 | glycan array binding signal (z-score) [12]: -0.274 | glycan array binding signal (z-score) [13]: -0.168 | glycan array binding signal (z-score) [14]: 0.082 | glycan array binding signal (z-score) [15]: 1.55 | glycan array binding signal (z-score) [16]: -0.456 | glycan array binding signal (z-score) [17]: -0.053 | glycan array binding signal (z-score) [18]: 1.24 | glycan array binding signal (z-score) [19]: -0.536 | glycan array binding signal (z-score) [20]: -0.555 | glycan array binding signal (z-score) [21]: -0.55 | glycan array binding signal (z-score) [22]: -0.29 | glycan array binding signal (z-score) [23]: -0.452 | glycan array binding signal (z-score) [24]: -0.262 | glycan array binding signal (z-score) [25]: 0.038 | glycan array binding signal (z-score) [26]: 0.278 | glycan array binding signal (z-score) [27]: 2.34 | glycan array binding signal (z-score) [28]: -0.095 | glycan array binding signal (z-score) [29]: -0.11 | glycan array binding signal (z-score) [30]: -0.48 | glycan array binding signal (z-score) [31]: 0.148 | glycan array binding signal (z-score) [32]: -0.363 | glycan array binding signal (z-score) [33]: 0.767 | glycan array binding signal (z-score) [34]: -0.285 | glycan array binding signal (z-score) [35]: -0.535 | glycan array binding signal (z-score) [36]: -0.464 | glycan array binding signal (z-score) [37]: -0.353 | glycan array binding signal (z-score) [38]: 0.074 | glycan array binding signal (z-score) [39]: -0.21 | glycan array binding signal (z-score) [40]: 0.16 | glycan array binding signal (z-score) [41]: 1.38 | glycan array binding signal (z-score) [42]: 1.1 | glycan array binding signal (z-score) [43]: -0.237 | glycan array binding signal (z-score) [44]: 0.108 | glycan array binding signal (z-score) [45]: -0.148
